For ten compounds, cytotoxicity call and growth inhibition call results are on record in the antibiotic and cytotoxicity screens of Wong et al. (2023).

In one test the test system is HSkMC. In words: cytotoxicity call (relative viability < 0.9). As to conditions: 10 µM.
The test system of another test is HepG2. Nature of the test: cytotoxicity call (relative viability < 0.9). The note with it: 10 µM.
A further test deals with S. aureus RN4220. Nature of the test: growth inhibition call (relative growth <= 0.2). The note with it: 50 µM.

SMILES strings stand for the structures. The list shows a part of the results.

In the case of `Cc1ccc(S(=O)(=O)NCCC(=O)O)cc1`, the cytotoxicity call in the test on HSkMC and in the test with HepG2 was “inactive” each time. Also, the growth inhibition call in the test with S. aureus RN4220 was “inactive”.

For `Cc1noc(C)c1S(=O)(=O)Nc1ccc2c(c1)C(=O)N([C@H](C)CO)C[C@@H](C)[C@H](CN(C)CC1CCCCC1)OCCCC[C@H](C)O2`, the cytotoxicity call with HSkMC and with HepG2 was “inactive” each time. Further, in the test with S. aureus RN4220, the growth inhibition call was “inactive”.

As for `C[C@@H]1CN([C@H](C)CO)C(=O)c2cc(NC(=O)CCC(F)(F)F)ccc2O[C@H]1CN(C)S(=O)(=O)c1cn(C)cn1`, the cytotoxicity call with HSkMC and in the test on HepG2 was “inactive” each time. Besides, in the test with S. aureus RN4220, the growth inhibition call is “inactive”.

`C[C@@H]1CN([C@H](C)CO)C(=O)c2cc(C#Cc3cccnc3)cnc2O[C@@H]1CN(C)S(C)(=O)=O`: the cytotoxicity call in the test with HSkMC and in the test on HepG2 was “inactive” throughout. Moreover, the growth inhibition call in the test on S. aureus RN4220 was “inactive”.

`O=C(NCC(F)(F)F)[C@H]1[C@H](CO)[C@H]2Cn3c(cccc3=O)[C@@H]1N2C(=O)C1CCC1`: the cytotoxicity call in the test on HSkMC and with HepG2 was “inactive” in each case. For the same compound, the growth inhibition call with S. aureus RN4220 was “inactive”.

As for `COc1ccccc1-c1cccc(-c2nc(C(=O)NCc3ccncc3)cc3c2[C@H](CCO)N([S@@](=O)C(C)(C)C)C3)c1`, the cytotoxicity call in the test on HSkMC was “active”. For the same compound, in the test on HepG2, the cytotoxicity call is “inactive”. For the same compound, the growth inhibition call in the test with S. aureus RN4220 was “inactive”.

Regarding `Cc1noc(C)c1NC(=O)Nc1ccc2c(c1)C(=O)N([C@H](C)CO)C[C@@H](C)[C@@H](CN(C)Cc1ccc3c(c1)OCO3)OCCCC[C@@H](C)O2`, the cytotoxicity call in the test on HSkMC and in the test on HepG2 was “inactive” in each case. The growth inhibition call in the test with S. aureus RN4220 is “inactive”.

Turning to `CC(C)NC(=O)Nc1ccc2c(c1)CC(=O)N([C@@H](C)CO)C[C@H](C)[C@H](CN(C)S(=O)(=O)c1cn(C)cn1)O2`, the cytotoxicity call in the test with HSkMC and in the test with HepG2 was “inactive” in each case. Also, the growth inhibition call with S. aureus RN4220 is “inactive”.

Regarding `O=C(c1cnn2c1OCCC2)N1CC(O)C1`, the cytotoxicity call in the test on HSkMC (human skeletal muscle cells) and in the test on HepG2 was “inactive” in each case. In addition, the growth inhibition call in the test on S. aureus RN4220 is “inactive”.

With `COc1ccc(S(=O)(=O)N(C)C[C@@H]2Oc3c(NS(=O)(=O)c4ccc(C)cc4)cccc3C(=O)N([C@@H](C)CO)C[C@@H]2C)cc1`, the cytotoxicity call in the test with HSkMC and in the test on HepG2 was “inactive” each time. Also, the growth inhibition call with S. aureus RN4220 was “inactive”.
